Measured values taken from PubChem BioAssay AID445 (National Center for Advancing Translational Sciences (NCATS), 2006).
The campaign covered roughly 110,000 compounds. About 40 (0.04%) were called active. This list was built around the results that the source calls inconclusive (neither active nor inactive); the mix of calls is not that of the screen. Calls come from the whole dose curve; as a rule, active = well fitted curve in the direction sought with a large enough effect in the signal ratio (not every such curve was filed as active); inconclusive = small, poorly fitted or top-dose-only effect, or a change in a side signal; inactive = flat fitted curve, though single readings scatter; the % refers to the signal ratio. Where the call is inconclusive, the potency comes from a doubtful curve fit.

assay: IkB Signaling; settings: ABC-DLBCL IkBa-CBG/CBR dual luciferase ratio (green luciferase fused to IkBa over red control in OCI-Ly3 lymphoma cells), 4 h; IkBa stabilization activation: at 57.1 µM (top of the series), scaled: untreated 0%, proteasome inhibitor 100% unless noted;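 for IkBa stabilization activation: 0% = basal untreated cells and 100% = reference inhibitor full response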
Method in brief: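 Curves were fitted separately to fusion (green), unfused (red) and ratio luminescence, then classed by r2, magnitude and activity. Cells: OCI-Ly3, 4 h compound plus doxycycline at 37C; 10 uM MG-132 defined full response.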
Potency is the fitted concentration of half-maximal effect.

Compound | Potency | IkBa stabilization activation
CCCCOC(=O)c1ccc(NC(=O)/C(C#N)=C/c2ccc(C)o2)cc1 | inconclusive: 1.58 µM [signal inhibitor, full curve] | 
CCc1cc2c(NCC3CCCO3)ncnc2s1 (centres undefined) |  | inconclusive: 3.85% [signal inhibitor]
CCCCC(c1nnnn1CCOC)N1CCN(c2cccc(OC)c2)CC1 (centres undefined) |  | inconclusive: 12.3% [signal inhibitor]
CCC(C)n1cnc2c(c1=O)c1nc3ccccc3nc1n2Cc1ccc2c(c1)OCO2 (centres undefined) |  | inconclusive: 2.21% [signal inhibitor]
O=C(c1cccc(-n2cnnn2)c1)N1CCOCC1 |  | inactive: -0.0297%
COC(=O)c1ccc(NC(=O)CN(c2cccc(C(F)(F)F)c2)S(C)(=O)=O)cc1 |  | inconclusive: 2.03% [signal inhibitor]
Cc1cccc(-n2c(SCC(=O)Nc3ccccc3C)nc3c(oc4ccccc43)c2=O)c1 |  | inconclusive: -0.312% [signal inhibitor]
COc1ccccc1NC(=O)Nc1ccc2c(c1)OCCO2 | inconclusive: 15.8 µM [signal inhibitor, partial curve] | 
CCC(Cc1ccccc1)NC(=O)Cn1ncc2c3ccccc3n(Cc3ccc(F)cc3)c2c1=O (centres undefined) |  | inactive: -2.14%
CCn1cc2nc(SCc3cccc(F)c3)n(CCc3ccccc3)c(=O)c2n1 |  | inconclusive: 7.2% [signal inhibitor]
O=C(O)CCn1ccc2cc(S(=O)(=O)N3CCCCC3)ccc21 |  | inconclusive: 0.909% [signal inhibitor]
COc1ccc(Cl)cc1NC(=O)CCCS(=O)(=O)c1nc(-c2ccc(OC)c(OC)c2)cc(C(F)(F)F)n1 | inconclusive: 5.01 µM [signal inhibitor, single point] | 
O=C(CN1C(=O)COc2ccccc21)N(Cc1cccnc1)Cc1cccc(F)c1 |  | inactive: -3.28%
CSc1c(C#N)c(N)c(C#N)c2c1COC(C)(C)C2 |  | inactive: 0.666%
Cc1cc(C)n2c(Nc3cccc(C(F)(F)F)c3)c(-c3ccsc3)nc2n1 |  | inconclusive: -0.554% [signal inhibitor]
O=C(CN1CCN(c2ccc(Cl)cc2)CC1)Nc1ccc(F)c(F)c1 |  | inconclusive: -2.05% [signal inhibitor]
Cc1cc(C)cc(-n2ccnc2SCC(=O)Nc2ccc(C)c(Cl)c2)c1 |  | inconclusive: 0.979% [signal inhibitor]
O=c1cc(-c2cccc(O)c2)oc2c(O)c(O)ccc12 |  | inactive: 1.95% [at 11.4 µM, scaled: untreated 0%, proteasome inhibitor 100%]
COc1ccc(NC(=O)c2[nH]nc3c2CSc2ccccc2-3)c(OC)c1 |  | inconclusive: 0.0652% [signal inhibitor]
CSc1cccc(NC(=O)CN(C)S(=O)(=O)c2ccc3c(c2)CCCN3C(C)=O)c1 |  | inconclusive: 3.03% [signal inhibitor]
CCOC(=O)CSc1nc2cc(OCC)ccc2cc1C#N |  | inactive: -1.21%
Cc1ccc(-c2n[nH]c3c2C(c2cccs2)N(c2ccc(Cl)cc2)C3=O)cc1 (centres undefined) |  | inconclusive: -1.83% [signal inhibitor]

Compound | Potency | IkBa stabilization activation
Cc1ccc(C)c(C(=O)CSc2nc3cc(C(=O)NC4CCCC4)ccc3c(=O)n2CC2CCCO2)c1 (centres undefined) |  | inconclusive: -1.43% [signal inhibitor]
Cc1cc(C)nc(N2CCC(C(=O)N3CCN(c4cc(Cl)ccc4C)CC3)CC2)n1 |  | inconclusive: 15.2% [signal inhibitor]
Cc1ccc(-c2nc3cc(NC(=O)c4cc(Br)ccc4Cl)ccc3o2)cc1 |  | inconclusive: 5.71% [signal inhibitor]
CC1CCN(S(=O)(=O)c2cn(CC(=O)Nc3ccc(F)cc3)c(=O)c3ccccc23)CC1 |  | inconclusive: 5.12% [signal inhibitor]
COc1ccc(N2CCN(Cc3nc(-c4ccc(C)cc4)no3)CC2)cc1 |  | inconclusive: 9.22% [signal inhibitor]
CCOc1cc2[nH]c(=O)n(CCCCCC(=O)NC(C)CC)c(=O)c2cc1OCC (centres undefined) |  | inconclusive: 0.524% [signal inhibitor]
COc1ccc(C2c3c(-c4ccc(F)cc4)n[nH]c3C(=O)N2c2ccccc2)cc1OC (centres undefined) |  | inconclusive: 14.7% [signal inhibitor]
Cc1ccc(-c2noc(COc3ccccc3C)n2)cc1 |  | inactive: -0.104%
CCOc1ccc(CCNC(=O)c2cc3c(-c4ccccc4F)nn(C)c3s2)cc1OCC |  | inconclusive: 1.75% [signal inhibitor]
Cc1ccccc1CNC(=O)CCSCc1cnn(-c2ccccc2)c1-n1cccc1 |  | inconclusive: -1.66% [signal inhibitor]
Oc1c(Cl)cc(Cl)cc1Sc1cc(Cl)cc(Cl)c1O |  | inconclusive: -1.15% [signal inhibitor]
CC(=O)[C@@H](C)CCO[C@@]1(C)OCC[C@@H]1C |  | inactive: -0.997% [at 11.4 µM, scaled: untreated 0%, proteasome inhibitor 100%]
COc1ccc(N(C(=O)COc2ccccc2)C2C=CS(=O)(=O)C2)c(OC)c1 (centres undefined) |  | inactive: -0.522%
O=C(COc1ccccc1)Nc1ccc2nc(SCC(=O)N3CCCC3)sc2c1 |  | inconclusive: 0.0301% [signal inhibitor]
COc1ccc(/C=N/c2nc3ccccc3n2C)cc1OC |  | inactive: -1.49%
Cn1c(CCN2CCCCCC2)nc2cc(NC(=O)Nc3ccccc3)ccc21 | inconclusive: 10 µM [signal inhibitor, partial curve] | 
Fc1ccc(N2CCN(c3ncnc4c3nc3n4CCCC3)CC2)cc1 |  | inconclusive: 1.71% [signal inhibitor]
CCOC(=O)N1CCN(S(=O)(=O)c2ccc(F)c(C(=O)Nc3cc(C)cc(C)c3)c2)CC1 |  | inconclusive: 7.53% [signal inhibitor]
c1ccc(-n2cccc2CNC2CCCCC2)cc1 |  | inactive: 1.02%
CCOC(=O)CNc1nc(C(C)(C)C)nc2c1nnn2Cc1ccccc1Cl |  | inactive: 1.3%
COc1ccc(NC(=O)C(NS(=O)(=O)c2cccc3nsnc23)c2ccccc2)cc1 (centres undefined) |  | inactive: 1.15%
Cn1cc(S(=O)(=O)N2CCCCC2)cc1C(=O)NCc1ccc(Cl)cc1 |  | inconclusive: 5.15% [signal inhibitor]
